Laboratory results from the supplement of paper PMC8821664.
Structures can show the parent of a compound that is named as a salt. The list shows a part of the results. Many values rest on one well or one pass, so single values are uncertain.

System: Beas-2B AQP5-HiBiT reporter cells
Test: AQP5-HiBiT luminescence relative to vehicle (ratio to vehicle); higher = higher AQP5-HiBiT protein abundance
Conditions: 10 µM; 18 h
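Also: monoclonal Beas-2B line stably carrying CMV promoter-driven AQP5-HiBiT, 5,000 cells per well in 384-well plates, lytic HiBiT plus LgBiT NanoLuc luminescence, FDA-approved drug library screen.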

| Structure (SMILES) | AQP5-HiBiT luminescence |
| --- | --- |
| CCN1CCN(C(=O)N[C@@H](C(=O)N[C@@H]2C(=O)N3C(C(=O)O)=C(CSc4nnnn4C)CS[C@H]23)c2ccc(O)cc2)C(=O)C1=O [Cefoperazone sodium] | 1.17 |
| c1ccc2[nH]c(-c3cscn3)nc2c1 [Thiabendazole] | 0.849 |
| CO[C@H]1C[C@@H]2CC[C@@H](C)[C@@](O)(O2)C(=O)C(=O)N2CCCC[C@H]2C(=O)O[C@H]([C@H](C)C[C@@H]2CC[C@@H](OC(=O)C(C)(CO)CO)[C@H](OC)C2)CC(=O)[C@H](C)/C=C(\C)[C@@H](O)[C@@H](OC)C(=O)[C@H](C)C[C@H](C)/C=C/C=C/C=C/1C | 0.439 |
| CC(=O)N[C@H]1[C@H]([C@H](O)[C@H](O)CO)OC(C(=O)O)=C[C@@H]1NC(=N)N [Zanamivir] | 0.642 |
| COc1cc2/c(=N/c3ccc(Br)cc3F)nc[nH]c2cc1OCC1CCN(C)CC1 [Vandetanib (ZD6474)] | 1.07 |
| CN(C)CCCN1c2ccccc2Sc2ccc(C(F)(F)F)cc21 [Triflupromazine hydrochloride] | 1.22 |
| CN(C)C(=O)C(CCN1CCC(O)(c2ccc(Cl)cc2)CC1)(c1ccccc1)c1ccccc1 [Loperamide hydrochloride] | 1.82 |
| Cc1ccnc2c1NC(=O)c1cccnc1N2C1CC1 [Nevirapine] | 0.626 |
| CC(=O)OCC(=O)[C@@]1(O)CC[C@H]2[C@@H]3CCC4=CC(=O)CC[C@]4(C)[C@H]3[C@@H](O)C[C@@]21C [Hydrocortisone acetate] | 0.721 |
| NC[C@H]1O[C@H](O[C@H]2[C@H](O)[C@@H](O[C@H]3O[C@H](CO)[C@@H](O)[C@H](N)[C@H]3O)[C@H](N)C[C@@H]2N)[C@H](N)C[C@@H]1O [Tobramycin] | 1.09 |
| Nc1nc2[nH]cc(CCc3ccc(C(=O)N[C@@H](CCC(=O)O)C(=O)O)cc3)c2c(=O)[nH]1 [Pemetrexed disodium] | 0.968 |
| CCCCC(=O)O[C@]1(C(=O)CO)CC[C@H]2[C@@H]3CCC4=CC(=O)CC[C@]4(C)[C@H]3[C@@H](O)C[C@@]21C [Hydrocortisone Valerate] | 0.653 |
| CC1=CC(=O)c2ccccc2C1=O [Menadione] | 1.12 |
| COc1cnc(NS(=O)(=O)c2ccc(N)cc2)nc1 [Sulfameter] | 0.834 |
| Cc1cc(C#N)cc(C)c1Oc1nc(Nc2ccc(C#N)cc2)nc(N)c1Br [Etravirine (TMC125)] | 0.885 |
| CC#CCn1c(N2CCC[C@@H](N)C2)nc2c1c(=O)n(Cc1nc(C)c3ccccc3n1)c(=O)n2C [Linagliptin] | 1.04 |
| Cc1cc(NS(=O)(=O)c2ccc(N)cc2)no1 [Sulfamethoxazole] | 0.756 |
| CCCCN(CCCC)CC(O)c1cc(Cl)cc2c1-c1ccc(Cl)cc1/C2=C/c1ccc(Cl)cc1 (stereo not given) [Lumefantrine] | 0.873 |
| CO[C@H]1/C=C/O[C@@]2(C)Oc3c(C)c(O)c4c(c3C2=O)C2=NC3(CCN(CC(C)C)CC3)NC2=C(NC(=O)/C(C)=C\C=C\[C@H](C)[C@H](O)[C@@H](C)[C@@H](O)[C@@H](C)[C@H](OC(C)=O)[C@@H]1C)C4=O [Rifabutin] | 1.22 |
| CN(C)CCCN1c2ccccc2Sc2ccc(Cl)cc21 [Chlorpromazine hydrochloride] | 1.05 |

| Structure (SMILES) | AQP5-HiBiT luminescence |
| --- | --- |
| CCCCCCCCCCCCC[N+](C)(C)Cc1ccccc1 [Benzalkonium chloride] | 0.604 |
| COc1ccc2cc([C@@H](C)C(=O)O)ccc2c1 [(R)-Naproxen] | 1.2 |
| CC(=O)[C@H]1CC[C@H]2[C@@H]3CCC4=CC(=O)CC[C@]4(C)[C@H]3CC[C@]12C [Progesterone] | 0.777 |
| CCCCOc1ccc(C(=O)CCN2CCCCC2)cc1 [Dyclonine hydrochloride] | 1.99 |
| C[C@]12CC[C@@H]3c4ccc(O)cc4C[C@@H](CCCCCCCCC[S+]([O-])CCCC(F)(F)C(F)(F)F)[C@H]3[C@@H]1CC[C@@H]2O (stereo not given in full) [Fulvestrant] | 1.51 |
| Nc1nc(NC2CC2)c2ncn([C@H]3C=C[C@@H](CO)C3)c2n1 [Abacavir] | 1.14 |
| CN1CCC[C@@H]1Cc1c[nH]c2ccc(CCS(=O)(=O)c3ccccc3)cc12 [Eletriptan HBr] | 1.07 |
| CC(=O)OCC(=O)[C@H]1CC[C@H]2[C@@H]3CCC4=CC(=O)CC[C@]4(C)[C@H]3CC[C@]12C [Deoxycorticosterone acetate] | 1.28 |
| NC[C@H]1O[C@H](O[C@H]2[C@H](O)[C@@H](O[C@H]3O[C@H](CO)[C@@H](O)[C@H](N)[C@H]3O)[C@H](N)C[C@@H]2N)[C@H](O)[C@@H](O)[C@@H]1O [Kanamycin sulfate] | 1.59 |
| CCOC(=O)CCC(=O)O[C@H]1[C@H](O[C@@H]2[C@@H](C)[C@H](O[C@H]3C[C@@](C)(OC)[C@@H](O)[C@H](C)O3)[C@@H](C)C(=O)O[C@H](CC)[C@@](C)(O)[C@H](O)[C@@H](C)C(=O)[C@H](C)C[C@@]2(C)O)O[C@H](C)C[C@@H]1N(C)C [Erythromycin ethylsuccinate] | 0.889 |
| CCCN(CCC)S(=O)(=O)c1ccc(C(=O)O)cc1 [Probenecid] | 0.721 |
| COCCc1ccc(OCC(O)CNC(C)C)cc1 (stereo not given) [Metoprolol tartrate] | 1.96 |
| OCCOCCN1CCN(C(c2ccccc2)c2ccc(Cl)cc2)CC1 (stereo not given) [Hydroxyzine 2hydrochloride] | 0.919 |
| Cc1cn([C@H]2C[C@H](N=[N+]=[N-])[C@@H](CO)O2)c(=O)[nH]c1=O [Zidovudine] | 0.956 |
| CN(C)CCC(c1ccc(Cl)cc1)c1ccccn1 (stereo not given) [Chlorpheniramine maleate] | 1.15 |
| CO[C@@H]1[C@@H](OC(N)=O)[C@@H](O)[C@H](Oc2ccc3c(O)c(NC(=O)c4ccc(O)c(CC=C(C)C)c4)c(=O)oc3c2C)OC1(C)C [Albamycinsodium] | 0.59 |
| CCCCCOC(=O)Nc1nc(=O)n([C@@H]2O[C@H](C)[C@@H](O)[C@H]2O)cc1F [Capecitabine] | 0.995 |
| CCn1cc(C(=O)O)c(=O)c2cc(F)c(N3CCNCC3)nc21 [Enoxacin Sesquihydrate] | 0.83 |
| OC(CCCN1CCCCC1)(c1ccccc1)c1ccccc1 [Diphenidol hydrochloride] | 0.874 |
| C[C@H]1O[C@H](O[C@H]2[C@H](O)[C@@H](O)[C@@H](O[C@H]3[C@H](O)[C@@H](O)C(O)O[C@@H]3CO)O[C@@H]2CO)[C@H](O)[C@@H](O)[C@@H]1N[C@H]1C=C(CO)[C@@H](O)[C@H](O)[C@H]1O (stereo not given in full) [Acarbose] | 0.909 |
